Among the data in the RNAGym collection of RNA variant scans (doi:10.7554/elife.90254) are self-cleavage values, retold here.

The source gives no read counts; variants with many changes may rest on few reads.

B1: LINE1-mini (parent)
chain: GGCAGAGCUCAACACAGCGUGGCAAAGUGGCUGUGGCUAGACUGCC

In the data set the parent is B1. Kind of data set: self-cleavage, relative activity (ratio to wild type); higher = more cleavage; in vitro, sequencing; the parent is a self-cleaving ribozyme.
As to G2A C3A C23G A39U, the self-cleavage came to 1.84.

C8G C13G U32G G35C C42G: the self-cleavage is 0.12.

For C3U G19U U34A A39G, the self-cleavage was found to be 0.02.

Regarding G2A G5A A41U, the self-cleavage was 0.2.

Consider G5U G19U C45A, for which the self-cleavage was 0.27.

As for C3U G33U U38A, the self-cleavage came to 0.08.

Regarding C13A C15A G17U G27U G29A, the self-cleavage was found to be 0.4.

C15U U20A C31G: the self-cleavage is 0.01.

Take G22U A39G C45U: the self-cleavage came out at 0.11.

On to A6C C31A U43C, for which the self-cleavage came to 0.01.

For the variant G2A A4G C8U, the self-cleavage is 0.06.

In the case of G33C U38C G40C G44A, the self-cleavage was found to be 0.01.

Consider A12U U20C A25C C31A G44A, for which the self-cleavage was 0.

Regarding C8G G19A A24U U34A, the self-cleavage was found to be 0.08.

For C23A U34C C42U, the self-cleavage was determined as 0.04.

Turning to G1C G5A C45G, the self-cleavage stood at 0.06.

Regarding C15U A16U U28G, the self-cleavage stood at 0.05.

With C18A C23U U32C, the self-cleavage stood at 0.05.

As for G2U G22U C23G G27U, the self-cleavage was determined as 0.29.

A12G G17A C31U: the self-cleavage came to 0.02.

Regarding A26U G29C G35A G40A, the self-cleavage stood at 0.03.

C8G U20A G21U C42G: the self-cleavage was found to be 0.1.

As for C3A A6G G35A, the self-cleavage came to 0.29.

For G17U G27U C46A, the self-cleavage came to 0.32.

For U9G A11U G17A A26U, the self-cleavage came out at 0.02.

Turning to A6C C8A A12U U20G, the self-cleavage worked out at 0.14.

With U34C G36C C37U, the self-cleavage turned out to be 0.02.

Regarding G5U G21U C37G C46U, the self-cleavage worked out at 0.26.

For C3A U9G G19U, the self-cleavage turned out to be 1.84.

Consider G1A G5A G7C C18G G27U A41G, for which the self-cleavage came out at 0.48.

Turning to C3A G30C C31G A41G C46U, the self-cleavage turned out to be 0.09.

Turning to A4U C10A C31G G35A, the self-cleavage worked out at 0.04.

As for C18U U20C G21A U32C, the self-cleavage was 0.2.

As to U20G A24C C31U C37A, the self-cleavage stood at 0.11.

On to G27U G29A A39U G44U, for which the self-cleavage was determined as 0.08.

In the case of A4C A12G C46U, the self-cleavage came out at 0.27.

As for G2C G21U G36C, the self-cleavage was 0.04.

G5C G30C C46G: the self-cleavage is 0.01.

As to C10U A12G U28A, the self-cleavage amounted to 0.02.

Regarding G5U G19U C46A, the self-cleavage was 0.07.

On to G2U G19A U38C, for which the self-cleavage stood at 0.27.

Regarding A4C A12C G22C G27A, the self-cleavage is 0.07.

Consider A14G U20G G22C A24U, for which the self-cleavage was 0.09.

For C3G A6U A11U, the self-cleavage amounted to 0.03.

Regarding G7U A16U U28C G30A, the self-cleavage was found to be 0.04.

For A4G A11G G33C, the self-cleavage came to 0.01.

Regarding G2A C15A C45G, the self-cleavage was found to be 0.21.

For the variant C3U C10A C15G C37A C46U, the self-cleavage stood at 0.02.

For C15A A16C C31G, the self-cleavage amounted to 0.01.

In the case of A16G G17C G19C G22C C42A, the self-cleavage was found to be 0.02.

Regarding G1U G40C C42U, the self-cleavage was found to be 0.05.

A11G C18U G19C G29U: the self-cleavage was found to be 0.04.

G5A U28C U32A U34G U38G: the self-cleavage is 0.02.

With A4C A26C G29C, the self-cleavage worked out at 0.08.

For the variant A24C G29A G35C, the self-cleavage came to 0.41.

Regarding A11G C23G A39G, the self-cleavage turned out to be 0.01.

Regarding U9A G21C U43G G44C, the self-cleavage is 0.04.

On to A4U C13A A24C, for which the self-cleavage was determined as 0.04.

Take A16C A24C G30C: the self-cleavage worked out at 0.01.

Consider G1A C3G U34C G35C, for which the self-cleavage stood at 0.17.

For the variant C18A G30U C42G U43A, the self-cleavage amounted to 0.

With A6G C8A C13A G30C, the self-cleavage amounted to 0.16.

Consider A6U A11U A12G G21A G36U, for which the self-cleavage is 0.03.

For A14U G21U U28A, the self-cleavage turned out to be 1.54.

For G19U G27A U28G G36C, the self-cleavage is 0.05.

Regarding C8U U20G G36C U43A, the self-cleavage was 0.02.

For G2C G22U G27C C37A, the self-cleavage was 0.01.

In the case of C3U C10A G27U U32C, the self-cleavage is 0.05.

Take A6G C18A C45G C46U: the self-cleavage was found to be 0.06.

On to C15A G22U A25C U28A, for which the self-cleavage came to 0.02.

With U9G C31U U38G, the self-cleavage stood at 0.

Regarding G2A C10A G27U G33U, the self-cleavage came to 0.03.

Regarding A4G G29U A39U G40U, the self-cleavage amounted to 0.17.

Turning to A4G G35U U38G, the self-cleavage is 0.05.

As to G2A A11G G44U, the self-cleavage is 0.05.

Take C15A G19U G21C: the self-cleavage was 0.11.

With G5U G7U C37U, the self-cleavage is 0.03.

As to G29C U32C U34G G35C, the self-cleavage came out at 0.06.

With G29C A41U G44C C46A, the self-cleavage amounted to 0.17.

With A11C U28C U34G A41U G44U, the self-cleavage stood at 0.

On to G2A A16U G21C, for which the self-cleavage was found to be 0.14.

Regarding A6U A12G A41U, the self-cleavage amounted to 0.03.

In the case of A4C C13G G29A G33U, the self-cleavage is 0.22.

On to C3G C13G A14G G35U, for which the self-cleavage was found to be 0.05.

For C23G U38C C46G, the self-cleavage came to 2.36.

With C3A C8G A26C G40U C45U, the self-cleavage was 0.02.

On to C23A G29U C31A, for which the self-cleavage turned out to be 0.04.

As to G22C G27U C42U, the self-cleavage turned out to be 0.16.

With G5U G29A C31A G35A A39U, the self-cleavage amounted to 0.07.

Take G19C G33A U38G G44A: the self-cleavage was 0.01.

Turning to G7C A16C G35C, the self-cleavage came out at 0.05.

Take C8A A25C G30A C31G: the self-cleavage turned out to be 0.28.

On to C8G A16G C46U, for which the self-cleavage came to 0.01.

Take A6C C23U G30A G40C: the self-cleavage was found to be 0.07.

Regarding A6C C18G G40A C42A, the self-cleavage turned out to be 0.09.

Regarding G1C C13U C37U, the self-cleavage is 0.07.

Consider C8A U32G G40A, for which the self-cleavage was 0.01.

As for U20G G22C G29A U34C, the self-cleavage came out at 0.1.

On to U9C A11C A12G, for which the self-cleavage worked out at 0.01.

Consider C10U A14U C18G U32G C37G, for which the self-cleavage worked out at 0.04.

With C3U C8G C46U, the self-cleavage worked out at 0.04.

For C3G A24G A25U G30C U32C A39G, the self-cleavage came out at 0.25.

In the case of U9C A12U A24U G35C U43C, the self-cleavage amounted to 0.02.

On to G5C C18U C37U, for which the self-cleavage is 0.04.

On to C15U C23A A25C U43C, for which the self-cleavage was found to be 0.06.

Consider C3U U9C U28A C37A G40C C46A, for which the self-cleavage is 0.01.

On to C10A A14G C15U, for which the self-cleavage stood at 0.

With C3G A14G A25U C37A, the self-cleavage was determined as 0.11.

G1C G7A G17U A26G: the self-cleavage is 0.14.

Consider A25G C31U U34C C46A, for which the self-cleavage is 0.03.

As for G5A G27C C37G C45G, the self-cleavage was 0.01.

Consider G2U A11C U28C C46G, for which the self-cleavage stood at 0.01.

Regarding G7A C8G A14C, the self-cleavage amounted to 0.12.

As for A11U G36A C46A, the self-cleavage was 0.02.

Turning to C3A A11C G29U C37U, the self-cleavage was found to be 0.03.

On to U20A G30A G44C, for which the self-cleavage came to 0.69.

For G2C C3U A4G C18U, the self-cleavage was found to be 0.1.

Regarding C8G C18G G44U, the self-cleavage was found to be 0.

For the variant A26G G27U C31G, the self-cleavage turned out to be 0.1.

In the case of A4G C15U A16G, the self-cleavage came to 0.33.

Take A6G C18U G19U U32G C45A: the self-cleavage amounted to 0.

A11G C18U U28G: the self-cleavage came to 0.

In the case of C8A C10G C23U G29C C37G U43A C45G, the self-cleavage was determined as 0.

Consider A24G G30U A41U, for which the self-cleavage came to 0.26.

Consider G30A U34G G40C A41G G44C, for which the self-cleavage came to 0.01.

For G30C U32G C46G, the self-cleavage was 0.03.

In the case of G1A C18A G30A, the self-cleavage is 0.25.

Regarding C15U G17U C18G C23G, the self-cleavage worked out at 0.04.

On to A6U C13A A14C A24U A26U G35A C37U, for which the self-cleavage stood at 0.09.

Take C18G C23U U34A: the self-cleavage was 0.04.

Consider G5C C18A U32C U43C, for which the self-cleavage was determined as 0.

In the case of A12U C13U G19U A25C U38G, the self-cleavage was determined as 0.01.

For C13A C15U A24U C42G, the self-cleavage was 0.12.

Consider U32A C37U C45U, for which the self-cleavage is 0.02.

Turning to C8A G30C A41G, the self-cleavage amounted to 0.26.

For G2C U32A U38A, the self-cleavage worked out at 0.01.

As for G2U A25C A39G, the self-cleavage was 0.

Take C15G G21C C31U: the self-cleavage was determined as 0.

Consider G2U U32A G33U A41C, for which the self-cleavage came to 0.02.

For C3U U9G U43A, the self-cleavage came to 0.09.

With A6U A14G C15A A16U G30U A39G, the self-cleavage came out at 0.06.

As for A11U C13U C15U, the self-cleavage stood at 0.02.

As to U9A C10A G40U, the self-cleavage is 0.04.

Take G21C G35A A41C: the self-cleavage turned out to be 0.05.

On to A16C A26C C37U A41U, for which the self-cleavage was determined as 0.02.

Turning to G7A C10A A11G C15G, the self-cleavage turned out to be 0.02.

Turning to U32G G35A U38A G44A, the self-cleavage is 0.06.

In the case of G1A C8A C13G C18A G22A A25U G29C, the self-cleavage came to 0.96.

For the variant A11G G19C G21A G27C C37G A41G C42U, the self-cleavage was determined as 0.

A14C A16G U34G: the self-cleavage amounted to 0.16.

Consider C8A A12C G29C, for which the self-cleavage is 0.04.

Consider A12U C23G C45U, for which the self-cleavage was 0.38.

In the case of A14C G27U G40U, the self-cleavage came out at 0.04.

A16U A25U A41G: the self-cleavage was 0.04.

Turning to A25G C31A G40U C42G, the self-cleavage was 0.01.

Turning to C3A G7U U32A C45G C46U, the self-cleavage turned out to be 0.18.

For G2U G5A A16U A25G U28G C46A, the self-cleavage was found to be 0.01.

Regarding U20G G21C C31G, the self-cleavage amounted to 0.05.

Regarding G7A C8U C31U U38C C42G, the self-cleavage was 0.36.

On to A25U G36U C42A, for which the self-cleavage stood at 0.02.

As for A24U U32A C37G, the self-cleavage was determined as 0.08.

For G21U G33C C37A, the self-cleavage stood at 0.04.

Consider C3G G7C G17U, for which the self-cleavage was determined as 0.02.

As for C10U C13G A16U A39U C45U, the self-cleavage amounted to 0.04.

For G2A A4C G22C U34C, the self-cleavage came out at 0.22.

In the case of A4C A14U G30A C31A, the self-cleavage worked out at 0.14.

For the variant A26G G30C G33U, the self-cleavage worked out at 0.03.
